The results in this text go back to paper PMC5687630.

Protein sequences, listed by entry. Tags and fused reporters are not part of them.
UniProt Q9UKB1: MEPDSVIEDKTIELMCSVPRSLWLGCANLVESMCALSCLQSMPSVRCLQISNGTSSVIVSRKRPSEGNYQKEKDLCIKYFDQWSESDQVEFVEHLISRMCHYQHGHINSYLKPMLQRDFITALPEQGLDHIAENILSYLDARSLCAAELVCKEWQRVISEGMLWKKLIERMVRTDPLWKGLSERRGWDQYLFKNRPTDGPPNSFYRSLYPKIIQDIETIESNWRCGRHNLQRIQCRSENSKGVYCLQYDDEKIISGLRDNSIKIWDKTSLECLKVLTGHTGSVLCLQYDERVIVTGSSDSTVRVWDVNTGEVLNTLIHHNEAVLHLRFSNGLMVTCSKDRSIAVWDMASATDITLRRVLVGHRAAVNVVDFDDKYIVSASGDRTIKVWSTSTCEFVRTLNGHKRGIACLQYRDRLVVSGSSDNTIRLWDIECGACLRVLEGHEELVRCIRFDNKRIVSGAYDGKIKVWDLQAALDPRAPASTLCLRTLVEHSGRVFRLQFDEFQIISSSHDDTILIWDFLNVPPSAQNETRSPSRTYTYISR
UniProt P49840: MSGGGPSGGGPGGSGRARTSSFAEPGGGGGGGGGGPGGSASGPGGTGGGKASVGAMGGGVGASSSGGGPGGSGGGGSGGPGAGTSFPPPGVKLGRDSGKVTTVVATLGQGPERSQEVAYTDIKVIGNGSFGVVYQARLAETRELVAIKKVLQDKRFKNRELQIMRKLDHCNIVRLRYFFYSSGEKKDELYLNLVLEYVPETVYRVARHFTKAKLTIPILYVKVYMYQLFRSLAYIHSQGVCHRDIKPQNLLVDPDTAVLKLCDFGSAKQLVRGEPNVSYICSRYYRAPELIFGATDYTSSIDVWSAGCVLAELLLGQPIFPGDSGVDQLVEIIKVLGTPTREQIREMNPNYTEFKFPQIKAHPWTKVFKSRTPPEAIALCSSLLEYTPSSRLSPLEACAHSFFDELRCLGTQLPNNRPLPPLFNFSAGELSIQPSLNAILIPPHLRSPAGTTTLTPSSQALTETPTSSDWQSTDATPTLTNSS
UniProt P49841: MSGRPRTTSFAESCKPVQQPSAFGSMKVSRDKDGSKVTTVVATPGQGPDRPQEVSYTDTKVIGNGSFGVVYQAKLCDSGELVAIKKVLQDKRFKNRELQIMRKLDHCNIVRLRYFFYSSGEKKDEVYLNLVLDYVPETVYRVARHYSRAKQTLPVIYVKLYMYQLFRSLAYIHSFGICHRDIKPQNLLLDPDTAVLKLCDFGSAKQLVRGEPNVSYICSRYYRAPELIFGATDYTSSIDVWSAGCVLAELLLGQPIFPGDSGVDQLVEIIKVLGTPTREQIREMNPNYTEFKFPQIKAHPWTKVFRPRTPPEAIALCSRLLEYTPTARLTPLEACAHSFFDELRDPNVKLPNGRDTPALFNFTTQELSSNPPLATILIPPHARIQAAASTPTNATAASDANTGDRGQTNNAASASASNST

Results are given in words; binding and its absence hold for the method and conditions named. Binding seen in cells or lysates may run through a third protein. Some results given as binding are weak or reduced against the parent protein; the word gives no strength. For some assays here: Sequences can lack the tags named with a protein.

The target of test [1] is T1, HA-ZNF281 (wild type, transfected) (UniProt Q9Y2X9).
T1 sequence: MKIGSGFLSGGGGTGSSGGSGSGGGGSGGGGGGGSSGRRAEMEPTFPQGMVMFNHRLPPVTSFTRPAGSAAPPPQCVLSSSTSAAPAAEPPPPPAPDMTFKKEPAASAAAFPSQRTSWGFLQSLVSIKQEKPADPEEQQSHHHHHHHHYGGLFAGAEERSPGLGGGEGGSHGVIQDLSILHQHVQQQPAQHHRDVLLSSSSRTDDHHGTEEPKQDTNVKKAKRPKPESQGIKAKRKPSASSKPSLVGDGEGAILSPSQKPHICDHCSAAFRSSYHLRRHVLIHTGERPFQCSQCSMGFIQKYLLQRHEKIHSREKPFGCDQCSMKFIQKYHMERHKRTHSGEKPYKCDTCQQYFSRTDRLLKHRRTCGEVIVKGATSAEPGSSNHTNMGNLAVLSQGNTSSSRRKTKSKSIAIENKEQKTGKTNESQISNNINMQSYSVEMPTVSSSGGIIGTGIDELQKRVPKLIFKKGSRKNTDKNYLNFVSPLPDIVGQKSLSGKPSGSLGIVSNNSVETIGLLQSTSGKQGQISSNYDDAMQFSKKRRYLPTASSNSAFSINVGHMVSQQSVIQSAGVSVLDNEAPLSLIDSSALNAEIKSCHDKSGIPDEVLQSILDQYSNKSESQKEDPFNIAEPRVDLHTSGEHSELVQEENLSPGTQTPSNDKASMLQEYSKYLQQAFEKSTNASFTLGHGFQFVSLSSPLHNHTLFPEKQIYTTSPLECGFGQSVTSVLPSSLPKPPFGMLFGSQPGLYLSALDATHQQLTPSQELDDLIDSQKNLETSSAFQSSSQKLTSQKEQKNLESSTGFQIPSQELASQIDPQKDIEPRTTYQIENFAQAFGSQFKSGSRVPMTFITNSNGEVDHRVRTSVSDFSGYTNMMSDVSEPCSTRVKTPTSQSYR
As to the kind of experiment: co-IP; co-transfection of GSK-3β or GSK-3α with ZNF281, co-IP and Western blotting; cell line not stated for this experiment. Background: In western blotting, separated proteins are transferred to a membrane and probed.

The target of test [2] is T2, Zinc finger protein 281 (ZNF281), endogenous (human (endogenous in HCT116)) (UniProt Q9Y2X9).
T2 sequence: T1 sequence
As to the kind of experiment: co-IP; endogenous proteins in total lysates of HCT116 cells, IP with the indicated antibody (anti-ZNF281 or reciprocal), immunoblotting; rabbit IgG as IP negative control.

Test [3] has as its target β-transducin repeat-containing protein 2 (β-TrCP2), endogenous (human (endogenous in HCT116)) (UniProt Q9UKB1). The description is as above.
Test [4] concerns the target Flag-β-TrCP2 (transfected) (UniProt Q9UKB1). The test is described as follows: co-IP; HCT116 cells co-transfected with ZNF281 and β-TrCP2 constructs, lysed after 48 h in IP buffer (20 mM HEPES pH 7.6, 0.5% Triton X-100, 150 mM NaCl), protein A-Sepharose and 1 μg antibody, Western blotting; in Figure 7A cells treated with MG132 (10 μM) for 10 h and Flag-β-TrCP2 immunoprecipitated.

On to “Glycogen synthase kinase 3α (GSK-3α), transfected (from UniProt P49840 1-483) (enzyme)”, for which the binding result in test [1] is reported as “no binding”.

Take “Glycogen synthase kinase 3β (GSK-3β), endogenous (from UniProt P49841 1-420) (enzyme)”: the binding result in test [2] is recorded as “binds”. For “Glycogen synthase kinase 3β (GSK-3β), wild type, transfected (from UniProt P49841 1-420) (enzyme)”, in test [1], the binding result is recorded as “binds”.

B1: Zinc finger protein 281 (ZNF281), endogenous (protein, UniProt Q9Y2X9 1-895)
chain: T1 sequence
As to B1, the binding result in test [3] is on record as “binds”.

B2: HA-ZNF281 (wild type, transfected) (protein, UniProt Q9Y2X9 1-895)
chain: T1 sequence
Regarding B2, the binding entry in test [4] is given as “binds”.
